Results as given in PubChem BioAssay AID1345083 (National Center for Advancing Translational Sciences (NCATS), 2018).
Several values for one entry are separate records, joined by “and”; a condition that tells them apart may be missing. Equal entries are not always repeated. In all, about 94,000 compounds went through this assay and about 6,200 (6.6%) were called active. The inconclusive results got no clear call from the source; some entries with a clear call stand among them for comparison. Calls come from the whole dose curve; as a rule, active = well fitted inhibition curve with a large enough effect; inconclusive = small, poorly fitted or top-dose-only effect; inactive = flat fitted curve, though single readings scatter. Where the call is inconclusive, the potency comes from a doubtful curve fit.
% is set by controls: 0 for no effect and ±100 for the full control effect; potency is the fitted concentration of half-maximal effect; tags give direction and shape of the fitted curve.

Assay: Cytotoxic Profiling in HEK 293 Cell Line of Diverse Libraries Using Quantitative High-Throughput Screening; note: nearly all actives have a fitted effect of over 60% in size
Settings: HEK 293 viability, ATP luminescence (CellTiter-Glo), 48-72 h; activity change, negative = cytotoxicity: at 115 µM (top of the series) unless noted; series mostly up to 115 µM
Outline: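 ATP-coupled CellTiter-Glo luminescence served as viability read-out, recorded 10 min after reagent addition at room temperature. HEK 293 cells, 250 cells/well, had been incubated with pintool-transferred compound for 48 or 72 hr at 37 degree Celsius.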
In the case of `O=C1COCC2(CN1)CN(C(=O)c1ccc(Cl)cc1)C2`, the Potency is reported as inconclusive: 158 µM [inhibitor, single point]. In the case of `Cn1nccc1C(=O)NCCc1noc(-c2ccccc2)n1`, the Potency is reported as inconclusive: 70.8 µM [inhibitor, partial curve]. In the case of `COCc1cc(CN(C)C(=O)CCc2cc3n(n2)CCNC3)[nH]n1`, the “outcome” value is reported as “inactive”. With `CCN1CCC(OCCCNC(=O)CCC[C@H]2NC[C@@H]3C[C@H]2CN(Cc2ccccc2)C3)CC1` the “activity change, negative = cytotoxicity” value was inactive: -15.8%. For `O=C1c2cc(N3CCOCC3)nc(-c3cccc(CO)c3)c2CN1Cc1ccccc1`, the Potency was active: 79.4 µM. For `CN(C)c1nc(NC2CC(c3cc(=O)[nH]c(C4CC4)n3)C2)ncc1F` (centres undefined), the Potency was inconclusive: 28.2 µM [inhibitor, full curve, poor fit]. In the case of `COc1ccc(-c2cn(C)c(=O)n3cc(COc4ccc(Cl)cc4)nc23)c(C)c1`, the Potency is reported as inconclusive: 63.1 µM [inhibitor, full curve]. In the case of `CN1C[C@@H](NC(=O)c2ccc(C(C)(C)C)cc2)C[C@H]1c1nc(-c2ccncc2)no1`, the Potency is reported as active: 70.8 µM. With `Cn1ncc2c(C(=O)Nc3cccnc3)cc(-c3ccccc3C(F)(F)F)nc21` the “outcome” value was “inactive”. For `CN(C)c1cccc(Oc2nnnn2[C@H]2CO[C@H]3[C@@H]2OC[C@@H]3NCC2CC2)c1`, the “activity change, negative = cytotoxicity” value was inactive: -19.9% [at 172 µM]. For `N#Cc1ccc(C(=O)N2C[C@@H](Oc3ccccc3)C[C@H]2C(=O)N2CCCC2)cc1`, the “activity change, negative = cytotoxicity” value was inactive: -5.16%. With `Cc1nc(N2CCC(NC(=O)c3cc4ccccc4[nH]3)CC2)cc(C(F)(F)F)n1` the Potency was inconclusive: 56.2 µM [inhibitor, partial curve, poor fit]. In the case of `O=C(c1ccc2[nH]ccc2c1)N1CCC2(CC1)N=C(c1cccc(Br)c1)NO2`, the Potency is reported as inconclusive: 89.1 µM [inhibitor, partial curve, poor fit]. In the case of `O=C1CCN(C(=O)Cc2c[nH]c3ccccc23)CCCC(C(=O)NCc2ccccc2)CCN1` (centres undefined), the “activity change, negative = cytotoxicity” value is reported as inactive: -9.7%. In the case of `COCCN(CC1CC1)C(=O)c1ccc2nc(-c3ccc(F)cc3)cn2c1`, the Potency is reported as inconclusive: 89.1 µM [inhibitor, single point]. In the case of `O=C(NCc1cc(F)ccc1F)c1cccnc1N1CC2CC(C1)[C@H]1CCCC(=O)N1C2` (some centres undefined), the “activity change, negative = cytotoxicity” value is reported as inactive: 0.103%. In the case of `O=C(NCc1cccc(Cl)c1)[C@@H]1C[C@H](c2ccc(F)cc2)N([S+](=O)([O-])C2CC2)C1`, the Potency is reported as inconclusive: 100 µM [inhibitor, partial curve]. With `COCCCn1c(=O)c(C(=O)N2CCN(C(=O)N(C)C)CC2)nc2cccnc21` the “activity change, negative = cytotoxicity” value was inactive: 2.25%. With `Cc1nn(-c2ccccc2)c2c1C(C(C)C)N(C1CCN(C(=O)Cc3ccc(F)cc3)C1)C2=O` (centres undefined) the Potency was inconclusive: 50.1 µM [inhibitor, partial curve, poor fit]. For `O=C(CCC1CCCN(S(=O)(=O)c2ccccc2)C1)NCc1ccc(Cl)cc1` (centres undefined), the Potency was inconclusive: 50.1 µM [inhibitor, partial curve, poor fit]. In the case of `Cc1ccc(CCN2CCCCC23Cc2ccccc2CN(C(=O)CCC(=O)O)C3)cc1` (centres undefined), the “activity change, negative = cytotoxicity” value is reported as inactive: 2.7%. With `O=C(CNC(=O)c1cccc(-c2ccc(C(F)(F)F)cc2)c1)NCc1cccc(Cl)c1` the Potency was active: 28.2 µM. For `O=C(CSc1ccncc1)N1CCCC(O)(CN2CCCC2)C1` (centres undefined), the Potency was inconclusive: 35.5 µM [inhibitor, partial curve]. With `N[C@H]1CN(C(=O)c2ccc(N3CCCCC3)cc2)C[C@@H]1c1ccccc1` the Potency was inconclusive: 89.1 µM [inhibitor, single point]. In the case of `COc1ccc(CN2C[C@@H](C(N)=O)[C@H](c3nc(C)no3)C2)cc1Cn1ccnc1`, the Potency is reported as inconclusive: 100 µM [inhibitor, single point]. In the case of `NCCc1noc(-c2cccnc2)n1`, the “activity change, negative = cytotoxicity” value is reported as inactive: 0.584%. For `CN(C)C(=O)c1cc(-c2ccccc2C(F)(F)F)nc2c1cnn2C`, the “activity change, negative = cytotoxicity” value was inactive: 1.85%. In the case of `CCOc1ccc(CC(=O)NC2CCN(c3cc(-c4cccs4)[nH]n3)C2)cc1OCC` (centres undefined), the Potency is reported as inconclusive: 79.4 µM [inhibitor, partial curve, poor fit]. In the case of `O=C(N[C@H]1CCC[C@H]1O)C1(Oc2ccc(Cl)cc2)CCNCC1`, the “activity change, negative = cytotoxicity” value is reported as inactive: -8.48%. With `CC1(CCCCN2CCOCC2)COc2ccc(C(=O)Nc3ccc(Cl)cc3)cc2N1` (centres undefined) the Potency was active: 50.1 µM. In the case of `O=C(NC1CC1)C1CCCCN1Cc1ccc(-c2cccs2)cc1` (centres undefined), the Potency is reported as active: 44.7 µM. For `CC(C)(C)CC(=O)N1C[C@@H](CO)[C@H](c2nc(-c3ccncc3)no2)C1`, the “activity change, negative = cytotoxicity” value was inactive: -13.5%. In the case of `Cc1ccc(C)c(CNC(=O)CCc2conc2-c2ccc(F)cc2)c1`, the Potency is reported as inconclusive: 63.1 µM [inhibitor, partial curve, poor fit]. In the case of `O=C(Cc1ccccc1Br)N1CCCN(c2cc(-c3ccc(F)cc3)[nH]n2)CC1`, the Potency is reported as inconclusive: 56.2 µM [inhibitor, partial curve, poor fit]. For `O=C(COc1ccccc1)N1CCCN(c2cc(-c3ccc(Br)cc3)[nH]n2)CC1`, the Potency was inconclusive: 50.1 µM [inhibitor, partial curve, poor fit]. For `C=CCOC(=O)C1=C(C)N=C2SC=C(CC(=O)NCc3ccc(F)cc3)N2C1c1ccccc1C` (centres undefined), the Potency was inconclusive: 56.2 µM [inhibitor, partial curve, poor fit]. For `O=C(N[C@H]1[C@H]2CCO[C@H]2[C@@H]1N1CCCC1)c1cc2c(s1)CCCCC2`, the Potency was inconclusive: 79.4 µM [inhibitor, partial curve, poor fit]. With `COC(=O)CNC(=O)c1cc(-c2ccc(Cl)cc2Cl)c2cccn2n1` the Potency was inconclusive: 44.7 µM [inhibitor, partial curve, poor fit]. For `O=C(c1ccccc1)N1Cc2ccccc2CC2(CCN(Cc3ccc(O)cc3)CC2)C1`, the Potency was inconclusive: 50.1 µM [inhibitor, partial curve, poor fit]. For `Cc1ccc(C(=O)NCc2nnc3ccc(-c4ccccc4)nn23)c(C)c1`, the Potency was inconclusive: 89.1 µM [inhibitor, single point]. With `COc1cncc(-c2cn(C)c(=O)n3cc(CNc4ccccc4)nc23)c1` the Potency was inconclusive: 112 µM [inhibitor, partial curve, poor fit]. In the case of `CCc1nnc(CN2CCC(C(=O)Nc3cccc(-c4ccco4)c3)CC2)o1`, the Potency is reported as inconclusive: 89.1 µM [inhibitor, single point]. In the case of `Cc1oc(C(O)c2ccccc2)nc1C(=O)Nc1ccc2c(c1)CC(=O)N2` (centres undefined), the Potency is reported as inconclusive: 126 µM [inhibitor, partial curve, poor fit]. For `O=C(Cc1ccc(F)cc1)N1CCC2(CC1)CCN(Cc1cccs1)c1ccccc1O2`, the “activity change, negative = cytotoxicity” value was inactive: -17.7%. With `COc1ccc(CN2C(=O)COC[C@H]2C(=O)N2CCC(Cc3ccccc3)CC2)cc1` the Potency was inconclusive: 89.1 µM [inhibitor, single point]. With `Cn1ncc2c(C(=O)NCc3cccnc3)cc(-c3ccc(Cl)cc3Cl)nc21` the Potency was inconclusive: 79.4 µM [inhibitor, partial curve, poor fit]. For `O=C1CN(Cc2ccc(-c3cc(F)cc(F)c3)cc2)CCN1c1nccc(Cl)n1`, the Potency was active: 44.7 µM. In the case of `COc1cccc(O)c1CN1CCCC12Cc1ccccc1CNC2=O` (centres undefined), the “activity change, negative = cytotoxicity” value is reported as inactive: -17.3%. With `O=C1Nc2ccccc2CC12CCN([S+](=O)([O-])c1cccc(C(F)(F)F)c1)C2` (centres undefined) the Potency was inconclusive: 15.8 µM [inhibitor, full curve, poor fit]. In the case of `Cc1ccc(-c2noc([C@@H]3Cc4nc[nH]c4CN3Cc3ccc(CO)o3)n2)cc1`, the “activity change, negative = cytotoxicity” value is reported as inactive: -19.4% [at 172 µM]. For `CN1CCN(C(=O)[C@@H]2[C@@H](CC(=O)O)c3cccnc3C(=O)N2Cc2ccccc2)CC1`, the Potency was inconclusive: 10 µM [inhibitor, partial curve, poor fit]. With `C[C@@]12CO[C@@H](CNC(=O)C3CCCC3)O[C@@H]1CC[C@]1(C)[C@@H]2CC[C@@H](O)[C@H]1CC(=O)NCc1ccc(F)cc1` the Potency was inconclusive: 56.2 µM [inhibitor, partial curve, poor fit]. With `O=C(Cn1ccn2nc(-c3ccc(F)cc3)c(CO)c2c1=O)NCc1ccc2c(c1)OCO2` the Potency was inconclusive: 28.2 µM [inhibitor, full curve, poor fit]. In the case of `c1ccc2c(CN3CC(Oc4ccc5c(c4)OCO5)C3)cccc2c1`, the Potency is reported as inconclusive: 44.7 µM [inhibitor, partial curve, poor fit]. With `O=C(NCc1cccs1)c1cc(Br)cn2ccnc12` the Potency was “inactive and inconclusive: 79.4 µM [inhibitor, partial curve, poor fit]”. With `COCc1nnc(C2CC3(CCN(C(=O)c4ccnn4C)CC3)CN2C)o1` (centres undefined) the “activity change, negative = cytotoxicity” value was inactive: -4.51%. In the case of `COc1ccc(-c2noc([C@@H]3CCCN3C(=O)c3ccc(F)c(Cl)c3)n2)cc1OC`, the Potency is reported as active: 39.8 µM. For `O=C(CC1CCCC1)NCC1CCC(=O)N(Cc2ccccc2)CC1` (centres undefined), the Potency was inconclusive: 44.7 µM [inhibitor, partial curve]. For `CC(C)N1CC2CCC(C1)N2Cc1cccc(-c2cccs2)c1`, the Potency was inconclusive: 56.2 µM [inhibitor, partial curve, poor fit]. With `CCc1noc(-c2cccn3c(CNC(=O)c4ccco4)nnc23)n1` the “outcome” value was “inactive”. In the case of `COC(=O)c1ccc2nc(C[C@@H]3C[C@@H](C(C)C)[C@H](CNS(=O)(=O)c4ccccc4)C=C3C)[nH]c2c1`, the Potency is reported as active: 28.2 µM. For `O=C(NCc1nnc2c(-c3nc(C4CC4)no3)cccn12)c1cc(F)ccc1F`, the Potency was inconclusive: 50.1 µM [inhibitor, partial curve, poor fit]. In the case of `Cc1ccccc1Nc1cnc2ccc(-n3ccnc3)nn12`, the Potency is reported as inconclusive: 141 µM [inhibitor, partial curve, poor fit]. For `O=C1CC(c2ccccc2)N(C(=O)CNS(=O)(=O)c2ccccc2)CCCCCCN1` (centres undefined), the “activity change, negative = cytotoxicity” value was inactive: -15.2%.
